Data taken from PubChem BioAssay AID504937 (National Center for Advancing Translational Sciences (NCATS), 2011).
About 20 (0.006%) of roughly 340,000 compounds were called active. The shares of active, inactive and inconclusive entries below differ from those in the screen. The call rests on the fitted dose curve; in most records, active means well fitted inhibition curve with a large enough effect; inconclusive means small, poorly fitted or top-dose-only effect; inactive means no such curve, though single readings can be large or run the other way. Where the call is inconclusive, the potency comes from a doubtful curve fit.

These compounds were tested against Sphingomyelin phosphodiesterase (Homo sapiens) (UniProt P17405) (assay: Inhibitors of Secretory Acid Sphingomyelinase (S-ASM): qHTS). Details: placental ASM, HMU-PC fluorogenic substrate (series up to 57.5 µM), 60 min; activity change, negative = inhibition: at the top concentration.
UniProt P17405, sequence (P17405 whole entry, looked up): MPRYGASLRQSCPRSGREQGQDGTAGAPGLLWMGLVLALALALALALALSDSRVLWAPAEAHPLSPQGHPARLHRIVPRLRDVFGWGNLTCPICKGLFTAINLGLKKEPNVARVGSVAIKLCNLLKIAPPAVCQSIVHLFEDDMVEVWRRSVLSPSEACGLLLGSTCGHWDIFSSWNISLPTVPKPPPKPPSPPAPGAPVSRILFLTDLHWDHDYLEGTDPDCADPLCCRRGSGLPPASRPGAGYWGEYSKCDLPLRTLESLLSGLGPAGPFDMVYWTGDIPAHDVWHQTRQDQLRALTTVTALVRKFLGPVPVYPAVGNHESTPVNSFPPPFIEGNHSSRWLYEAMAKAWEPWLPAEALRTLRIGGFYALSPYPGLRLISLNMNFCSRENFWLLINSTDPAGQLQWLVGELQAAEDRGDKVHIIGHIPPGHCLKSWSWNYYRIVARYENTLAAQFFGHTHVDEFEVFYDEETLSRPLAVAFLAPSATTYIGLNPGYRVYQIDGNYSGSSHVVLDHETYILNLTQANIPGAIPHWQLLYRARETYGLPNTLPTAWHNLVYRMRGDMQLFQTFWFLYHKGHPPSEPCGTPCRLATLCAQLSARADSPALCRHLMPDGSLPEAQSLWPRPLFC
How it was run: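 HMU-PC0 cleavage (9 uM final) by human placental ASM, 60 min at 37 °C following 10 min compound exposure at RT; stopped at pH 10, fluorescence Ex 386/Em 447 nm.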
Potency means the concentration at half of the fitted maximal effect; tags describe the fitted curve by direction and shape.

SMILES | activity change, negative = inhibition | Potency
C/C(=N\NC(=O)c1cc(-c2cccs2)nc2ccccc12)c1ccccn1 | inactive: 5.97% | 
CCCCN(CCCC)S(=O)(=O)c1ccc(NS(=O)(=O)c2ccc(NC(C)=O)cc2)cc1 |  | inconclusive: 112 µM [inhibitor, partial curve, poor fit]
COc1ccc(N2C(=O)C3CC(C)=C(C)CC3C2=O)c(OC)c1 (stereo unspecified) | inactive: -0.875% | 
CCOC(=O)C1=C(C)n2c(s/c(=C3\C(=O)Nc4ccccc43)c2=O)=NC1c1ccc(OC)cc1 (stereo unspecified) |  | inconclusive: 56.2 µM [inhibitor, partial curve]
CNC(=S)N/N=C/c1cc(C)n(-c2ccc(Cl)c(Cl)c2)c1C |  | inconclusive: 89.1 µM [inhibitor, partial curve, poor fit]
COC(=O)c1c(NC(=O)COC(=O)Cn2cnc3ccccc32)sc2c1CCCC2 |  | inconclusive: 63.1 µM [inhibitor, partial curve, poor fit]
Cc1ccc(N2C(=O)c3cccc4c(N)ccc(c34)C2=O)c2cccnc12 | inactive: -2.4% | 
COC(=O)c1ccccc1S(=O)(=O)N(Cc1ccco1)Cc1cc2cc(OC)ccc2[nH]c1=O | inactive: 7.94% | 
Cc1ccc(NC(=O)c2ccc(NCCCN3CCOCC3)c([N+](=O)[O-])c2)cc1Cl |  | inconclusive: 63.1 µM [inhibitor, single point]
O=C(c1cn(-c2ccccc2)nc1-c1cccs1)N1CCN(c2ccc(F)cc2)CC1 |  | inconclusive: 251 µM [inhibitor, partial curve, poor fit]
CCCC(=O)Nc1nc2ccc(NC(=O)c3c(F)c(F)c(OC)c(F)c3F)cc2s1 |  | inconclusive: 39.8 µM [inhibitor, partial curve, poor fit]
O=S(=O)(c1ccc(Br)s1)N1CCN(c2ccnc3cc(Cl)ccc23)CC1 |  | inconclusive: 8910 µM [inhibitor, partial curve, poor fit]
COC(=O)[C@@]12CCCN1[C@H](c1ccc(-c3ccc(OC)cc3)cc1)[C@@H]1C(=O)N(C)C(=O)[C@@H]12 |  | inconclusive: 100 µM [inhibitor, partial curve, poor fit]
COc1ccc(-c2noc(Cn3cc(S(=O)(=O)N4CCCC4)ccc3=O)n2)cc1 | inactive: -1.62% | 
COc1ccc(NC(=O)NNC(=O)c2ccc3ccccc3c2O)c(OC)c1 | inactive: 178% | 
Cn1cccc1-c1cc(C(=O)N/N=C/c2ccc(Cl)cc2)[nH]n1 |  | inconclusive: 89.1 µM [inhibitor, single point]
Cc1[nH]c2ccccc2c1/C=N/Nc1nc(Nc2ccccc2)nc(N2CCOCC2)n1 |  | inconclusive: 89.1 µM [inhibitor, single point]
O=c1[nH]c(C2CCCN(S(=O)(=O)c3ccccc3F)C2)nc2c1nnn2Cc1ccccc1Cl (stereo unspecified) |  | inconclusive: 100 µM [inhibitor, partial curve, poor fit]

SMILES | activity change, negative = inhibition | Potency
C/C(N)=C(/C#N)C(=O)CSc1nn(-c2ccc(Cl)cc2)c(=S)s1 |  | inconclusive: 100 µM [inhibitor, partial curve, poor fit]
C#CCOCCOCCOCCNc1nc(N2CCN(C(=O)CCCCCCCCCCNC(=O)[C@H]([C@@H](C)CC)n3cc(CCCCN=C(N)N)nn3)CC2)nc(N2CCN(C(=O)CCCCCCCCCCNC(=O)[C@H](CCCCN)n3cc(C)nn3)CC2)n1 |  | inconclusive: 126 µM [inhibitor, partial curve, poor fit]
COc1cc(/C=C2\SC(=S)N(CCC(=O)N3CCCCC3)C2=O)cc(OC)c1OC |  | inconclusive: 112 µM [inhibitor, partial curve]
O=C(CSc1nc2ccccc2s1)Nc1cc(S(=O)(=O)N2CCOCC2)ccc1O |  | inconclusive: 50.1 µM [inhibitor, single point]
O=c1c2ccccc2nc(SCc2ccccc2)n1Cc1ccco1 |  | inconclusive: 562 µM [inhibitor, partial curve, poor fit]
CC(C)N(C(=O)[C@H]1C[C@H](CC(=O)NC(C)(C)C)C(=O)N2CCc3c([nH]c4cc(-c5ccco5)ccc34)[C@]12C)C(C)C |  | inconclusive: 89.1 µM [inhibitor, partial curve, poor fit]
C#CCOCCOCCOCCNc1nc(N2CCN(C(=O)CCCCCCCCCCNC(=O)[C@H](CCCCN)n3cc(C)nn3)CC2)nc(N2CCN(C(=O)CCCCCCCCCCNC(=O)[C@H](CCCN=C(N)N)n3cc(C[C@@H](C)CC)nn3)CC2)n1 |  | inconclusive: 100 µM [inhibitor, single point]
C=CCn1cc(/C=C2\SC(N3CCOCC3)=NC2=O)c2ccccc21 | inactive: 3.28% | 
O=C(Cn1cnc2cc([N+](=O)[O-])ccc2c1=O)Nc1cccc(S(=O)(=O)N2CCCCC2)c1 | inactive: -3.03% | 
Cc1ccc(NC(=O)COC(=O)/C=C/c2cccc(Cl)c2)cc1S(=O)(=O)N1CCOCC1 |  | inconclusive: 112 µM [inhibitor, partial curve, poor fit]
Cc1ccc(Nc2nc(N)nc(CSc3ncccn3)n2)cc1 | inactive: -1.91% | 
O=C(COc1ccccc1[N+](=O)[O-])N/N=C/c1ccc(OC(=O)c2ccco2)cc1 |  | inconclusive: 89.1 µM [inhibitor, single point]
COc1ccc(Cl)cc1NC(=O)CN(C)C(=O)c1sccc1-c1ccccc1 | inactive: -2.31% | 
O=C(C=P(c1ccccc1)(c1ccccc1)c1ccccc1)c1ccccc1-c1ccccc1C(=O)C=P(c1ccccc1)(c1ccccc1)c1ccccc1 |  | inconclusive: 56.2 µM [inhibitor, single point]
O=C(Nn1c(C2CCCCC2)nc2ccccc2c1=O)c1ccc(Cl)c([N+](=O)[O-])c1 |  | inconclusive: 126 µM [inhibitor, partial curve, poor fit]
C=CCn1c(SCc2ccc(C(=O)Nc3nccs3)cc2)nnc1-c1ccc(C)c(Cl)c1 |  | inconclusive: 126 µM [inhibitor, partial curve]
CC[n+]1ccc(/C=C/c2ccc(N(C)C)cc2)c2ccccc21 |  | inconclusive: 126 µM [inhibitor, partial curve, poor fit]
CC1CC1C(=O)OCC(=O)Nc1ccc(N=Nc2ccccc2)cc1 (stereo unspecified) |  | inconclusive: 79.4 µM [inhibitor, partial curve, poor fit]
